Experimental data as given in the supplement of paper PMC11880418.
Where a name gives a salt, the structure may show the parent alone. Some of the results follow. The data scatter; read single values as rough.

Experiments:
Experiment in all cases: ALDHbr (CSC) cell proportion score relative to DMSO vehicle (ratio to DMSO); breast (SUM159) / gastric (MKN45) / pancreatic (PANC1) / colon cancer lines; ALDHbr cells have high ALDH activity and are rich in cancer stem cells (CSC); higher = more CSC (ALDHbr) cells remaining
Conditions in all cases: 10 µM; 72 h
[1] = tested on: MKN45
[2] = tested on: PANC1
[3] = tested on: SUM159
[4] = tested on: T84
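Further: High-content imaging of ALDEFLUOR-stained cells with Hoechst-labelled nuclei in 384-well plates, triplicate wells, scored as Z-score against 0.1% DMSO vehicle, negative meaning fewer ALDHbr cells.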

Row | SMILES | ALDHbr [1] | ALDHbr [2] | ALDHbr [3] | ALDHbr [4]
1 | COc1cc(NS(=O)(=O)c2ccc(N)cc2)nc(OC)n1 [Sulfadimethoxine] | 1.03 | 0.941 | 1 | 1.09
2 | CCCCC1C(=O)N(c2ccccc2)N(c2ccccc2)C1=O [Phenylbutazone] | 1.26 | 0.987 | 1.02 | 0.947
3 | OC(CCCN1CCCCC1)(c1ccccc1)c1ccccc1 [Diphenidol hydrochloride] | 1 | 0.872 | 0.849 | 1.06
4 | Cc1cc(NS(=O)(=O)c2ccc(N)cc2)no1 [Sulfamethoxazole] | 1.06 | 0.867 | 0.811 | 0.992
5 | CN(C(=O)CN(CCO)CC(=O)N(C)C(C)(C)Cc1ccccc1)C(C)(C)Cc1ccccc1 [Oxethazaine] | 0.772 | 0.992 | 1.56 | 0.0929
6 | CC(=O)[C@H]1CC[C@H]2[C@@H]3C=CC4=CC(=O)CC[C@@]4(C)[C@@H]3CC[C@]12C [Dydrogesterone] | 0.451 | 0.663 | 1.27 | 0.921
7 | COC(=O)Nc1nc2cc([S+]([O-])c3ccccc3)ccc2[nH]1 (stereo not drawn) [Oxfendazol] | 1.55 | 1.15 | 0.988 | 0.781
8 | CNC(C)CCC=C(C)C (stereo not drawn) [Isometheptene mucate] | 1.05 | 0.993 | 0.886 | 0.829
9 | CC(NCCC(c1ccccc1)c1ccccc1)c1ccccc1 (stereo not drawn) [Fendiline hydrochloride] | 1.33 | 1.04 | 0.442 | 0.38
10 | O=C1C(CC[S+]([O-])c2ccccc2)C(=O)N(c2ccccc2)N1c1ccccc1 (stereo not drawn) [Sulfinpyrazone] | 0.964 | 0.947 | 1.12 | 1.1
11 | COc1c2occc2c(OC)c2c(=O)cc(C)oc12 [Khellin] | 1.07 | 0.871 | 1.28 | 0.944
12 | O=C(O)CCCC[C@@H]1SC[C@@H]2NC(=O)N[C@@H]21 [Biotin] | 0.978 | 0.911 | 1.07 | 0.946
13 | CC(C)C(=O)OCC(=O)[C@@]12O[C@H](C3CCCCC3)O[C@@H]1C[C@H]1[C@@H]3CCC4=CC(=O)C=C[C@]4(C)[C@H]3[C@@H](O)C[C@@]12C [Ciclesonide] | 0.37 | 0.852 | 0.394 | 0.466
14 | Nc1nc(N)nc(-c2cc(Cl)ccc2Cl)n1 [Irsogladine maleate] | 1.14 | 0.835 | 0.98 | 1.05
15 | CCn1cc(C(=O)O)c(=O)c2ccc(C)nc21 [Nalidixic acid sodium salt] | 1.01 | 0.854 | 1.06 | 1
16 | CC(C)(Oc1ccc(CCNC(=O)c2ccc(Cl)cc2)cc1)C(=O)O [Bezafibrate] | 0.989 | 0.963 | 0.843 | 1
17 | CC(C)(C)NC[C@@H](O)COc1cccc2c1CCCC2=O [(+) -Levobunolol hydrochloride] | 1.05 | 0.792 | 0.999 | 1.08
18 | COc1ccc(/C=C/C(=O)Nc2ccccc2C(=O)O)cc1OC [Tranilast] | 0.982 | 0.887 | 1.38 | 0.851
19 | CC1(C)S[C@@H]2[C@H](NC(=O)[C@H](N)c3ccc(O)cc3)C(=O)N2[C@H]1C(=O)O [Amoxicillin] | 0.945 | 0.906 | 1.14 | 1.05
20 | CC(C)(C)C(=O)OCOC(=O)[C@@H]1N2C(=O)[C@@H](/N=C/N3CCCCCC3)[C@H]2SC1(C)C [Pivmecillinam hydrochloride] | 1.14 | 1.03 | 0.704 | 1.02
21 | C[C@]12CC[C@H]3[C@@H](CCC4=CC(=O)CC[C@@]43C)[C@@H]1CC[C@@H]2C(=O)CO [Deoxycorticosterone] | 0.454 | 0.764 | 0.713 | 0.839
22 | C[C@H]1NC(=O)NC1=O [Methylhydantoin-5-(D)] | 0.95 | 0.894 | 0.931 | 1.01
23 | Nc1nc2ccc(OC(F)(F)F)cc2s1 [Riluzole hydrochloride] | 1.22 | 0.799 | 1.21 | 0.811
24 | C#CCN(C)Cc1ccccc1 [Pargyline hydrochloride] | 0.967 | 0.831 | 0.92 | 0.988
25 | Nc1ccc(S(=O)(=O)c2ccc(N)cc2)cc1 [Dapsone] | 0.804 | 0.894 | 1.23 | 0.858
26 | CCOC(=O)[C@H](CCc1ccccc1)N[C@@H](C)C(=O)N1CCC[C@H]1C(=O)O [Enalapril maleate] | 1.23 | 1.04 | 1.51 | 1
27 | Nc1nc(N)c2nc(-c3ccccc3)c(N)nc2n1 [Triamterene] | 0.2 | 0.73 | 1.48 | 0.656
